In PubChem BioAssay AID360 (National Center for Advancing Translational Sciences (NCATS), 2006):
Hit rate of the full screen: of about 48,000 compounds, about 550 (1.1%) were called active. Roughly 4% stayed inconclusive and do not appear here. Cut-off read from the data, not from the text of the source: active = potency below about 15 µM; inconclusive = mostly about 16 µM to 33 µM; inactive = weaker than that. Some of the results follow.

Target: Lysosomal acid glucosylceramidase (Homo sapiens) (UniProt P04062)
Sequence of UniProt P04062 (P04062 whole entry, looked up): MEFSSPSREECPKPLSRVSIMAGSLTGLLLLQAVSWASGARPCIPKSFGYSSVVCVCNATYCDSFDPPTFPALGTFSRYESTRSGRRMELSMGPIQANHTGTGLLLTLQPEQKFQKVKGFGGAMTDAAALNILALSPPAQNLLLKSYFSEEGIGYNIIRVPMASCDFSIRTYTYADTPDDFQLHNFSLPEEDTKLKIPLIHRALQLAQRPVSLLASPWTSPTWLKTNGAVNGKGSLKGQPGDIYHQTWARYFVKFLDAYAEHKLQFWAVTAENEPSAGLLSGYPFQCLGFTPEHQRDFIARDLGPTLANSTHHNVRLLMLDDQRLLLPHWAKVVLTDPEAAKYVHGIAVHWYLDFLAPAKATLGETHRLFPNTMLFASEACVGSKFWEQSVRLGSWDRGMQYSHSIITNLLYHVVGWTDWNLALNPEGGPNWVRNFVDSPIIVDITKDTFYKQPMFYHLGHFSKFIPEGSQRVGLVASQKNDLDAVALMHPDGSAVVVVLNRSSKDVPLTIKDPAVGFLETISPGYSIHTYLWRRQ
Experiment: Glucocerebrosidase;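 note: the screen sought inhibitors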
Conditions: purified enzyme, resorufin glucoside fluorescence (screen aimed at inhibitors), 20 min
Outline: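 Wild-type enzyme at 0.2 nM final in 50mM citric acid/KH2PO4, 10mM sodium taurocholate, 0.01% tween-20, pH 5.9, with resorufin beta-D-glucopyranoside at 30 uM final. Compounds titrated, 20 min at RT, red fluorescence read; AC50 from titration.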
Potency is the fitted concentration of half-maximal effect.

Potency, inactive:
Clc1ccc(C2=Nn3c(nnc3-c3cccnc3)SC2)s1 > 76.9 µM, CC(O)[C@H](NC(=O)C1(c2ccccc2)CCN(C(=O)OC(C)(C)C)CC1)C(=O)O (stereo partly drawn) > 76.9 µM, O=c1[nH]c(-c2ccncc2)nc2ccccc12 > 76.9 µM, COc1ccccc1N1C(=O)C2CC(C)=C(C)CC2C1=O (stereo not drawn) > 76.9 µM, O=C(NCCCN1CCOCC1)c1cc2c(=O)[nH]c3ccccc3c2s1 > 76.9 µM, COc1ccc(-c2noc(CCC(=O)NCCCN3CCC(C)CC3)n2)cc1 > 76.9 µM, O=c1[nH]c2cc3c(cc2cc1CN(Cc1cccs1)Cc1nnnn1Cc1ccco1)OCCO3 > 76.9 µM, Cc1nn2c(=O)nc3sc4c(c3c2[nH]c1=O)CCCC4 > 76.9 µM, Cn1c(C(=O)Nc2ccc3c(c2)OCCO3)cc2sccc21 > 76.9 µM, O=c1cc(CN2CCN(CCO)CC2)c2cc3c(cc2o1)CCC3, CC(C)(C)OC(=O)NCCCCCc1nnc(SCC(N)=O)o1 > 76.9 µM, COc1cc(NC(=O)c2ccc(Br)o2)c(C(=O)O)cc1OC > 76.9 µM, Cc1c(C(=O)OC(C)C)[nH]c2c1C(=O)CC(C)(C)C2 > 76.9 µM, CCN1CCCC1CN(Cc1cc2ccc(C)c(C)c2[nH]c1=O)C(=O)Nc1ccccc1OC (stereo not drawn) > 76.9 µM, CCOc1ccc(C(=O)Nc2ccc(S(=O)(=O)N3CCOCC3)cc2)cc1OCC > 76.9 µM, Cc1nnc(SCC(=O)Nc2cccc(C(F)(F)F)c2)[nH]c1=O > 76.9 µM, CCC1Sc2ccccc2N(CC(=O)NCCC(C)C)C1=O (stereo not drawn) > 76.9 µM, CN(CC(=O)NC1CCCCC1)S(=O)(=O)c1cccc2nsnc12 > 76.9 µM, CCCCNC(=O)Cn1cnc2sc(C(=O)OCC)c(C)c2c1=O > 76.9 µM, CCC1S/C(=C(\C#N)C(N)=O)N(c2ccc(F)cc2)C1=O (stereo not drawn) > 76.9 µM, O=S(=O)(c1ccc2c(c1)OCCO2)N(Cc1ccc(F)cc1)Cc1nnc(-c2cccs2)o1 > 76.9 µM, CC1CCCCN1S(=O)(=O)c1ccc(NC(=O)CSc2nnnn2C)cc1 (stereo not drawn) > 76.9 µM, O=C(O)c1ccc(S(=O)(=O)NC2CCCCC2)cc1 > 76.9 µM, O=C(Nc1ccccc1)N(Cc1cccs1)C1CCCC1 > 76.9 µM, O=c1oc2ccccc2c(O)c1CN1CCCCC1 > 76.9 µM, O=C(c1ccco1)N1CCN(C(c2ccc(Cl)cc2)c2nnnn2CC2CCCO2)CC1 (stereo not drawn) > 76.9 µM, Cc1ccc(-c2nsc3c(N4CCC(C(N)=O)CC4)ncnc23)cc1 > 76.9 µM, CC(=O)Nc1cc(C(=O)c2ccccc2)ccc1N1CCOCC1 > 76.9 µM, O=C(Nc1ncc2c(n1)CC(c1ccco1)CC2=O)c1ccc(Cl)cc1 (stereo not drawn) > 76.9 µM, CCOC(=O)c1sc(NC(=O)c2cccs2)cc1C > 76.9 µM, CCOC(=O)c1[nH]nc2c1C(=O)N(CC)C2=O > 76.9 µM, Cc1ccc2c(C(=O)CN3CCCCC3CCO)c(C)[nH]c2c1 (stereo not drawn) > 76.9 µM, COc1cc(NC(=O)Cc2cccs2)cc(OC)c1 > 76.9 µM, CCCCn1c(=O)n(Cc2cccc(F)c2)c(=O)c2c1ncn2Cc1ccco1 > 76.9 µM, Cc1ccc(-n2c(SCC(=O)N3CCOCC3)nnc2-c2cccnc2)cc1C > 76.9 µM, Cc1ccc(-c2cc(C(=O)Nc3cnn(C45CC6CC(CC(C6)C4)C5)c3)no2)cc1 > 76.9 µM, COC(=O)CC1C(=O)NCCN1C(=O)NC1CCCCC1 (stereo not drawn) > 76.9 µM, CCOC(=O)c1cccc(NC(=O)CSc2nnc(C3CCCCC3)n2C)c1 > 76.9 µM, CCN(CC)C(=O)CSc1nc2ccccc2c(=O)n1OC > 76.9 µM, COc1ccc(NS(=O)(=O)c2cc(OC)ccc2NC(=O)c2cc(C)oc2C)cc1 > 76.9 µM, c1cc(C2CCCCC2)ccc1Oc1nc(N2CCOCC2)nc(N2CCOCC2)n1 > 76.9 µM, CC(C)C(=O)Nc1ccc(NC(=O)c2ccccn2)cn1 > 76.9 µM, C=CCn1c(SCCCCCC)nc(O)cc1=O > 76.9 µM, COc1cc2nc(C3CCC3)n(NC(=O)C(OC(C)=O)c3ccccc3)c(=O)c2cc1OC (stereo not drawn) > 76.9 µM, Cc1nc(S(=O)(=O)NC2CCCCC2)c(C#N)c(C)c1Cl > 76.9 µM, CC(C)CCOc1ccc(C(=O)CCNC(C)C(=O)O)cc1 (stereo not drawn), COc1ccc(S(=O)(=O)N(Cc2ccccc2)Cc2nc3ccccc3c(=O)[nH]2)cc1 > 76.9 µM, O=C(NCC(F)(F)F)Nc1cccnc1 > 76.9 µM, COc1ccc(S(=O)(=O)N(C)CC(=O)NC2CCCC2)cc1Cl > 76.9 µM, CS(=O)(=O)c1ncc(Cl)c(C(=O)Nc2ccc(N3CCOCC3)cc2)n1 > 76.9 µM, CCCCOc1ccc(-c2ncc(C(=O)O)c(C)n2)cc1 > 76.9 µM, Cc1cc(C)n(-c2nc3c(c(=O)n(C)c(=O)n3C)n2C)n1 > 76.9 µM, COc1ccccc1-n1cnc2cc(NS(=O)(=O)c3ccccc3)ccc21 > 76.9 µM, CCOC(=O)N1CCN(S(=O)(=O)c2cc(Cl)c(OC)cc2Cl)CC1 > 76.9 µM, COc1ccc(OC)c(NC(=O)CCN2CCN(c3ccccc3)CC2)c1 > 76.9 µM, CCSc1nnc(-c2ccccc2NC(C)=O)c(=O)[nH]1 > 76.9 µM, O=C(COC(=O)C1=COCCO1)Nc1ccc2c(c1)OCO2 > 76.9 µM, O=C(C1CCCN(Cc2ccncc2)C1)N1CCc2ccccc2C1 (stereo not drawn) > 76.9 µM
